{"source": "ChEMBL document CHEMBL5606460", "about": "“ASAP - DENV-2 NS2B-NS3 protease fluorescence single point” (2024)", "molecular_target": "Genome polyprotein (dengue virus type 2) (UniProt P29990)", "key": {"[1]": {"settings": "Thailand/16681/1984, Concentration 25.0 uM, Number of replicates 1.0"}}, "note": "Screen size: about 2,000 compounds; about 110 (5.5%) showed an effect of 50% or more. Some of the results follow.", "data": [{"smiles": "N#Cc1cccc(-c2nc3c(C(=O)Nc4cccnc4)cc(Cl)cc3[nH]2)c1", "values": [{"measurement": "inhibition", "setting": "Thailand/16681/1984, Concentration 99.5 uM, Number of replicates 2.0, Standard deviation 0.04165727071859149 %", "value": 7.45, "unit": "%"}, {"measurement": "inhibition", "setting": "Thailand/16681/1984, Concentration 295.6 uM, Number of replicates 2.0, Standard deviation 4.418006643102565 %", "value": 20.3, "unit": "%"}]}, {"smiles": "NC(=O)c1ccc(CNC(=O)NCCc2ccc(OCc3ccccc3)cc2)cc1", "values": [{"measurement": "inhibition", "setting": "Thailand/16681/1984, Concentration 49.5 uM, Number of replicates 2.0, Standard deviation 0.5577395301756973 %", "value": -1.78, "unit": "%"}, {"measurement": "inhibition", "setting": "Thailand/16681/1984, Concentration 99.01 uM, Number of replicates 2.0, Standard deviation 1.0648622968700545 %", "value": -1.61, "unit": "%"}, {"measurement": "inhibition", "setting": "Thailand/16681/1984, Concentration 198.0 uM, Number of replicates 2.0, Standard deviation 0.1126939294223689 %", "value": -0.94, "unit": "%"}]}, {"smiles": "Cc1cc(NC(=O)C2CCN(c3ccc(C=O)cc3)CC2)c(F)cc1Br", "values": [{"measurement": "inhibition", "setting": "[1]", "value": 15.8, "unit": "%"}]}, {"smiles": "O=Cc1ccc(N2CCC(C(=O)N(CC(F)(F)F)CC(F)(F)F)CC2)cc1", "values": [{"measurement": "inhibition", "setting": "[1]", "value": 10.3, "unit": "%"}]}, {"smiles": "CN(C)CCN(Cc1ccccc1)C(=O)C1CCN(c2ccc(C=O)cc2)CC1", "values": [{"measurement": "inhibition", "setting": "[1]", "value": 15.1, "unit": "%"}]}, {"smiles": "CCc1cc(C)nc(C2CCN(Cc3c[nH]c4ccccc34)CC2)n1", "values": [{"measurement": "inhibition", "setting": "Thailand/16681/1984, Concentration 49.5 uM, Number of replicates 2.0, Standard deviation 0.5385296709740081 %", "value": 0.046, "unit": "%"}, {"measurement": "inhibition", "setting": "Thailand/16681/1984, Concentration 99.01 uM, Number of replicates 2.0, Standard deviation 1.0618023724478907 %", "value": 0.432, "unit": "%"}, {"measurement": "inhibition", "setting": "Thailand/16681/1984, Concentration 198.0 uM, Number of replicates 2.0, Standard deviation 1.4139495966608713 %", "value": 1.68, "unit": "%"}]}, {"smiles": "c1ccc(C2CCN(Cc3c[nH]c4ccccc34)CC2)nc1", "values": [{"measurement": "inhibition", "setting": "Thailand/16681/1984, Concentration 49.5 uM, Number of replicates 2.0, Standard deviation 4.603470646814268 %", "value": -1.34, "unit": "%"}, {"measurement": "inhibition", "setting": "Thailand/16681/1984, Concentration 99.01 uM, Number of replicates 2.0, Standard deviation 4.546574592960684 %", "value": 0.417, "unit": "%"}, {"measurement": "inhibition", "setting": "Thailand/16681/1984, Concentration 198.0 uM, Number of replicates 2.0, Standard deviation 4.978090128111347 %", "value": 2.87, "unit": "%"}]}, {"smiles": "CN(C[C@H](O)[C@@H](O)[C@H](O)[C@H](O)CO)C(=O)C1CCN(c2ccc(C=O)cc2)CC1", "values": [{"measurement": "inhibition", "setting": "[1]", "value": 9.51, "unit": "%"}]}, {"smiles": "Cc1cc(CO)c2cccc(CC(=O)NCCN3CCOCC3)c2n1", "values": [{"measurement": "inhibition", "setting": "Thailand/16681/1984, Concentration 99.9 uM, Number of replicates 2.0, Standard deviation 2.2245511253795573 %", "value": -9.04, "unit": "%"}]}, {"smiles": "Cc1ccsc1CN(CC(C)C)C(=O)C1CCN(c2ccc(C=O)cc2)CC1", "values": [{"measurement": "inhibition", "setting": "[1]", "value": 16.4, "unit": "%"}]}, {"smiles": "COc1ccc(F)cc1-c1ccccc1C(=O)Nc1cnn(C)c1", "values": [{"measurement": "inhibition", "setting": "Thailand/16681/1984, Concentration 49.5 uM, Number of replicates 2.0, Standard deviation 2.2581672831644526 %", "value": -4.25, "unit": "%"}, {"measurement": "inhibition", "setting": "Thailand/16681/1984, Concentration 99.01 uM, Number of replicates 2.0, Standard deviation 1.9365380229757554 %", "value": -2.49, "unit": "%"}, {"measurement": "inhibition", "setting": "Thailand/16681/1984, Concentration 198.0 uM, Number of replicates 2.0, Standard deviation 2.756548372009165 %", "value": -2.95, "unit": "%"}]}, {"smiles": "O=Cc1ccc(N2CCC(C(=O)N3CCC(=C4c5ccc(Cl)cc5CCc5cccnc54)CC3)CC2)cc1", "values": [{"measurement": "inhibition", "setting": "[1]", "value": -7.77, "unit": "%"}]}, {"smiles": "Cc1cc(CO)c2cccc(Cc3ccccc3NC(=O)Cc3nnc(C)[nH]3)c2n1", "values": [{"measurement": "inhibition", "setting": "Thailand/16681/1984, Concentration 49.95 uM, Number of replicates 2.0, Standard deviation 1.0489246346930539 %", "value": 2.09, "unit": "%"}, {"measurement": "inhibition", "setting": "Thailand/16681/1984, Concentration 99.9 uM, Number of replicates 2.0, Standard deviation 0.8121374020252716 %", "value": 10.7, "unit": "%"}]}, {"smiles": "CC(=O)N[C@@H](Cc1ccc(O)cc1)C(=O)Nc1cccc2c(CO)cc(C)nc12", "values": [{"measurement": "inhibition", "setting": "Thailand/16681/1984, Concentration 49.95 uM, Number of replicates 2.0, Standard deviation 2.4752459751189644 %", "value": -9.17, "unit": "%"}, {"measurement": "inhibition", "setting": "Thailand/16681/1984, Concentration 99.9 uM, Number of replicates 2.0, Standard deviation 3.123465853915667 %", "value": -9.54, "unit": "%"}]}, {"smiles": "Cc1cc(CO)c2cccc(Cc3cccc(NC(=O)C4(C(N)=O)CC4)c3)c2n1", "values": [{"measurement": "inhibition", "setting": "Thailand/16681/1984, Concentration 49.95 uM, Number of replicates 2.0, Standard deviation 2.0722319933927014 %", "value": -2.83, "unit": "%"}, {"measurement": "inhibition", "setting": "Thailand/16681/1984, Concentration 99.9 uM, Number of replicates 2.0, Standard deviation 1.5321916950743657 %", "value": 5.38, "unit": "%"}]}, {"smiles": "Cc1cc(CO)c2cccc(NC(=O)[C@@H]3CC(=O)CCN3)c2n1", "values": [{"measurement": "inhibition", "setting": "Thailand/16681/1984, Concentration 49.95 uM, Number of replicates 2.0, Standard deviation 1.684279261738791 %", "value": 1.29, "unit": "%"}, {"measurement": "inhibition", "setting": "Thailand/16681/1984, Concentration 99.9 uM, Number of replicates 2.0, Standard deviation 1.6842793565692 %", "value": -1.57, "unit": "%"}]}, {"smiles": "Cc1cc(NC(=O)C2CCN(c3ccc(C=O)cc3)CC2)ncc1I", "values": [{"measurement": "inhibition", "setting": "[1]", "value": 12.5, "unit": "%"}]}, {"smiles": "Cc1cnccc1NC(=O)c1cccnc1OCC(C)C", "values": [{"measurement": "inhibition", "setting": "Thailand/16681/1984, Concentration 49.5 uM, Number of replicates 2.0, Standard deviation 1.0025877150906009 %", "value": -3.33, "unit": "%"}, {"measurement": "inhibition", "setting": "Thailand/16681/1984, Concentration 99.01 uM, Number of replicates 2.0, Standard deviation 1.539326482177684 %", "value": -2.27, "unit": "%"}, {"measurement": "inhibition", "setting": "Thailand/16681/1984, Concentration 198.0 uM, Number of replicates 2.0, Standard deviation 3.346222906476355 %", "value": 0.296, "unit": "%"}]}, {"smiles": "COc1cccc(Cn2ncc(C3CCNCC3)c2C)n1", "values": [{"measurement": "inhibition", "setting": "Thailand/16681/1984, Concentration 49.5 uM, Number of replicates 2.0, Standard deviation 0.6865140838852157 %", "value": -2.28, "unit": "%"}, {"measurement": "inhibition", "setting": "Thailand/16681/1984, Concentration 99.01 uM, Number of replicates 2.0, Standard deviation 1.8857815426916016 %", "value": -0.708, "unit": "%"}, {"measurement": "inhibition", "setting": "Thailand/16681/1984, Concentration 198.0 uM, Number of replicates 2.0, Standard deviation 1.685903611817113 %", "value": -0.083, "unit": "%"}]}, {"smiles": "CC(C)NC(=O)[C@H](Nc1ccc2c(c1)CNC2)c1cc(Cl)cc2[nH]c(-c3ccccc3)nc12", "values": [{"measurement": "inhibition", "setting": "Thailand/16681/1984, Concentration 99.5 uM, Number of replicates 2.0, Standard deviation 1.6408381783405366 %", "value": 91.5, "unit": "%"}, {"measurement": "inhibition", "setting": "Thailand/16681/1984, Concentration 295.6 uM, Number of replicates 2.0, Standard deviation 0.018514941963441705 %", "value": 97.4, "unit": "%"}]}, {"smiles": "O=Cc1ccc(N2CCC(C(=O)Nc3cc(C(F)(F)F)ccc3Cl)CC2)cc1", "values": [{"measurement": "inhibition", "setting": "[1]", "value": 11.7, "unit": "%"}]}, {"smiles": "NCc1cccc(NC(=O)Cc2ccc(OCc3ccccc3)cc2)c1", "values": [{"measurement": "inhibition", "setting": "Thailand/16681/1984, Concentration 49.5 uM, Number of replicates 2.0, Standard deviation 0.3616312555788717 %", "value": -3.09, "unit": "%"}, {"measurement": "inhibition", "setting": "Thailand/16681/1984, Concentration 99.01 uM, Number of replicates 2.0, Standard deviation 0.27421312838327405 %", "value": -2.89, "unit": "%"}, {"measurement": "inhibition", "setting": "Thailand/16681/1984, Concentration 198.0 uM, Number of replicates 2.0, Standard deviation 0.0354621897496722 %", "value": -1.31, "unit": "%"}]}, {"smiles": "CC(C)(O)CN(Cc1ccccc1)C(=O)C1CCN(c2ccc(C=O)cc2)CC1", "values": [{"measurement": "inhibition", "setting": "[1]", "value": 14.3, "unit": "%"}]}, {"smiles": "CN1C(=O)c2ccc(NC(=O)C3CCN(c4ccc(C=O)cc4)CC3)cc2C1=O", "values": [{"measurement": "inhibition", "setting": "[1]", "value": 15.7, "unit": "%"}]}, {"smiles": "Cc1cnccc1NC(=O)c1cc(C#N)n(C)c1C", "values": [{"measurement": "inhibition", "setting": "Thailand/16681/1984, Concentration 49.5 uM, Number of replicates 2.0, Standard deviation 1.7932303086690136 %", "value": -2.73, "unit": "%"}, {"measurement": "inhibition", "setting": "Thailand/16681/1984, Concentration 99.01 uM, Number of replicates 2.0, Standard deviation 1.8848942250899017 %", "value": -2.4, "unit": "%"}, {"measurement": "inhibition", "setting": "Thailand/16681/1984, Concentration 198.0 uM, Number of replicates 2.0, Standard deviation 3.3866692139435313 %", "value": -1.63, "unit": "%"}]}]}
